In general, koff refers to a measure of how fast the partners let go of each other. Usually kon stands for the rate constant with which the complex forms. Read a high kon as fast association. The term Kd denotes the equilibrium constant for the complex coming apart. A word on the EC50: it is the concentration at which the effect is half-maximal.

Here are results for one molecule from patent publication US20230109218A1 (BIOATLA, published 2023).

Experiment [1] deals with T1, huCD3-His (human).
T1 chain: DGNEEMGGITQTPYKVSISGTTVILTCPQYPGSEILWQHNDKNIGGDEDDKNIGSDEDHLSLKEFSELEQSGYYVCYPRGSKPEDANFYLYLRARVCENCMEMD
Description: SPR, huCD3-His immobilised, bispecific as analyte, 1:1 model, pH 7.4. (In general: In SPR one partner is held on a chip, and binding of the other changes the refractive index at the surface.)

For experiment [2], the target named is T1, huCD3-His. The experiment in a line: SPR, huCD3-His immobilised, bispecific as analyte 0.625-25 nM, pH 7.4, 1:1 fit.
Experiment [3] deals with recombinant human CD3 (ELISA capture) (human). The experiment in a line: pH sandwich ELISA, human CD3 coated, detection with human HER2-mouse Fc and anti-mouse HRP, pH 7.4. On the technique in general: In an ELISA, binding on a coated surface is turned into a signal by an enzyme label.
Experiment [4] addresses T1, huCD3-His. The experiment in a line: SPR, huCD3-His immobilised, bispecific as analyte 0.625-25 nM, pH 6.0, 1:1 fit.
Experiment [5] concerns the target recombinant human CD3 (ELISA capture) (human). The experiment in a line: pH sandwich ELISA, human CD3 coated, detection with cyno HER2-mouse Fc, pH 6.0.
For experiment [6] the target is unchanged. The experiment in a line: pH sandwich ELISA, human CD3 coated, detection with human HER2-mouse Fc and anti-mouse HRP, pH 6.0.
For experiment [7] the target is unchanged. The experiment in a line: pH sandwich ELISA, human CD3 coated, detection with cyno HER2-mouse Fc; ratio of EC50 at pH 7.4 to pH 6.0.
Experiment [8] addresses T1, huCD3-His. The experiment in a line: SPR, huCD3-His immobilised, bispecific as analyte, 1:1 model, pH 6.5.
Experiment [9] addresses T1, huCD3-His. Description: SPR, huCD3-His immobilised, bispecific as analyte, 1:1 model, pH 6.0.
Experiment [10] has as its target T1, huCD3-His. Description: SPR, huCD3-His immobilised, bispecific as analyte 0.625-25 nM, pH 6.5, 1:1 fit.
The target of experiment [11] is recombinant human CD3 (ELISA capture) (human). Description: pH sandwich ELISA, human CD3 coated, detection with cyno HER2-mouse Fc, pH 7.4.
The target is the same in experiment [12]. Description: pH sandwich ELISA, human CD3 coated, detection with human HER2-mouse Fc; ratio of EC50 at pH 7.4 to pH 6.0.

B1: WT HER2 × WT CD3 butterfly bispecific antibody (bispecific antibody, human IgG1, kappa)
heavy: [about 450 residues with a human IgG1 Fc not printed]
light: [about 200 residues not printed]SRSGGGGEVQLVESGGGLVQPGGSLRLSCAASGFTFNTYAMNWVRQAPGKGLEWVARIRSKYNNYATYYADSVKDRFTISRDDSKNSLYLQMNSLKTEDTAVYYCVRHGNFGNSYVSWFAYWGQGTLVTVSSGGSGGSGGSGGSGGQAVVTQEPSLTVSPGGTVTLTCRSSTGAVTTSNYANWVQQKPGQAPRGLIGGTNKRAPWTPARFSGSLLGGKAALTITGAQAEDEADYYCALWYSNLWVFGGGTKLTVLSR
notes: also called WT Her × WT CD3
As for B1, the koff in the experiment with huCD3-His [1] amounted to 0.000321 s⁻¹; in the experiment with huCD3-His [2], 0.000321 s⁻¹; with huCD3-His [4], 0.000129 s⁻¹; with huCD3-His [8] it was 0.000296 s⁻¹; with huCD3-His [9], 0.000129 s⁻¹; with huCD3-His [10] it was 0.000296 s⁻¹. In addition, the on-rate constant (kon) turned out to be 5250 M⁻¹ s⁻¹ with huCD3-His [1]; 5250 M⁻¹ s⁻¹ with huCD3-His [2]; 105000 M⁻¹ s⁻¹ with huCD3-His [4]; 79900 M⁻¹ s⁻¹ with huCD3-His [8]; 105000 M⁻¹ s⁻¹ in the experiment with huCD3-His [9]; 79900 M⁻¹ s⁻¹ in the experiment with huCD3-His [10]. The Kd was found to be 61.1 nM with huCD3-His [2]; 1.23 nM with huCD3-His [4]; 3.71 nM in the experiment with huCD3-His [8]; 1.23 nM with huCD3-His [9]; 3.71 nM with huCD3-His [10]. Also, the EC50 in experiment [3] was 0.0621 µg/mL; in [5], 0.083 µg/mL; in [6], 0.0777 µg/mL; in [11], 0.0812 µg/mL. Besides, the “EC50 ratio pH 7.4/6.0” value in [7] is 0.98; in experiment [12], 0.8.
